# Source: PubChem BioAssay AID488969 (Vanderbilt High Throughput Screening Facility, 2010)
# Over roughly 110,000 compounds, “z-score” has its median near -0.1; the highest 2% begin near 2. The list shows a part of the results. Activity calls are given as the source filed them.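 Rule for the calls: active = z-score in the third read window above 3 or below -3; inactive = the rest.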
# Target: Metabotropic glutamate receptor 8 (Rattus norvegicus) (UniProt P70579)
# Test: rat mGluR8 modulators via GIRK flux, primary screen, cell-based, thallium flux, HTS (AID 488969)
# Settings: HEK293 rat mGluR8, GIRK (G protein-gated inwardly rectifying potassium channel) thallium flux, FluoZin2; at 10 µM; stronger effect = higher value; submaximal glutamate (EC20) added with thallium
# UniProt P70579, sequence (P70579 whole entry, looked up): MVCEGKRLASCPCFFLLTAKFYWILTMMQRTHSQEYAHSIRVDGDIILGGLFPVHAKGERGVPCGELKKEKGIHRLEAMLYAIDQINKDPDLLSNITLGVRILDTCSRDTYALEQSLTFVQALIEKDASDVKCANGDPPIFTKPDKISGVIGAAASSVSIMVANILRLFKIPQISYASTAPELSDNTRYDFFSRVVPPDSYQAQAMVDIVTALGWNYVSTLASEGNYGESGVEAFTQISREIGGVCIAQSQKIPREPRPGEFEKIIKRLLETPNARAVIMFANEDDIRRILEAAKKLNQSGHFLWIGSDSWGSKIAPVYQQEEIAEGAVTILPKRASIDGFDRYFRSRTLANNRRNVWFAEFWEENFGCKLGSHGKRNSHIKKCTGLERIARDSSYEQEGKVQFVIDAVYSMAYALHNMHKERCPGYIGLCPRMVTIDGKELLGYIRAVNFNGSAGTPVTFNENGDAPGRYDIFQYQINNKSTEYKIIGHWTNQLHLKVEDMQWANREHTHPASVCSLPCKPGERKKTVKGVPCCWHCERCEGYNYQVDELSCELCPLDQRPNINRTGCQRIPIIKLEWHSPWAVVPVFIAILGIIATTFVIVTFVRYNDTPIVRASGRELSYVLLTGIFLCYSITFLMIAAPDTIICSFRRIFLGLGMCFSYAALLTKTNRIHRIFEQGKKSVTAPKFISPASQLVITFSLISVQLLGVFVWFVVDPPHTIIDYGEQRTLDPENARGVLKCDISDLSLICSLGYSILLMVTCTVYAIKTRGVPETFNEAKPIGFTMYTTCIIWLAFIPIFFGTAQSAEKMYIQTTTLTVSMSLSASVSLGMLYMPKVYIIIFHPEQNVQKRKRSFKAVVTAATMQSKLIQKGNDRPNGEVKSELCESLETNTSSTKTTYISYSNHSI
row,SMILES,z-score
1,COC(=O)c1ccc(S(=O)(=O)N2CCC(c3nc4ccccc4o3)CC2)cc1,-0.225
2,CC1(C(=O)NC23CC4CC(CC(C4)C2)C3)CC1(Cl)Cl (stereo not given),-0.368
3,Cc1nn(-c2ccccc2)c(N2CCCC2)c1/C=N/NC(=O)c1ccccc1O,-0.454
4,COc1cc2[nH]c(=O)n(CCC(=O)N3CCC(N4CCCCC4)CC3)c(=O)c2cc1OC,0.8
5,O=C(COc1cccc(NC(=O)c2ccco2)c1)c1ccc(F)cc1,-0.699
6,O=C(c1cccs1)c1coc2ccc(O)c(CN(CCO)CCO)c12,-0.481
7,COC(=O)C(Sc1nc(C)cc(C)c1C#N)c1ccccc1 (stereo not given),-1.09
8,c1ccc2c(COn3nnc4ccccc43)cccc2c1,-0.16
9,CCCCCOC(=O)Cn1c(N2CCCCCC2)nc2c1c(=O)[nH]c(=O)n2C,-0.49
10,CCCCNC(=S)NC(=O)c1ccccc1Br,active: 6.17
11,CN(C)CCNC(=S)Nc1ccccc1Cl,-0.0864
12,O=C(NNC(=O)c1ccc(O)cc1O)c1ccc(Cl)cc1,0.289
13,C=C(C)Cn1c(SCCN2CCOCC2)nc2c1c(=O)[nH]c(=O)n2C,0.15
14,CN(C(=O)COC(=O)c1ccc2c(=O)n3c(nc2c1)CCC3)c1ccccc1,-0.0823
15,CCc1ccc(NS(=O)(=O)c2cccs2)cc1,-0.536
16,Cc1c(NC(=O)c2ccccc2N(C)S(=O)(=O)c2ccccc2)c(=O)n(-c2ccccc2)n1C,-0.127
17,N=c1nc(-c2ccccc2)ccn1O,2.64
18,CCNC(=O)CN(c1ccc(CC)cc1)S(C)(=O)=O,-0.127
19,CN(C)CC(C)(C)CNS(=O)(=O)c1cccc(Cl)c1Cl,-0.445
20,O=[N+]([O-])c1cccc(/C=N/N2CCN(c3ccccn3)CC2)c1,-0.169
21,COc1cccc(C2/C(=C(\O)c3ccc(OC)c(OC)c3)C(=O)C(=O)N2c2cc(C)on2)c1 (stereo not given),-0.615
22,CC(C)(C)C(=O)Nc1ccccc1C(=O)OCC(=O)c1ccc2c(c1)OCCO2,-0.731

row,SMILES,z-score
1,COc1cccc(C(C(=O)NC(C)(C)C)N(C(=O)CCC(=O)Nc2cc(C)on2)C(C)(C)C)c1OC (stereo not given),-0.147
2,CC(Sc1nncn1C)C(=O)Nc1ccc(Cl)cn1 (stereo not given),0.18
3,COc1cccc(NS(=O)(=O)Cc2ccccc2)c1,-0.15
4,Nc1nc(NCc2ccco2)nn1-c1ccccc1,-0.042
5,CCC(CC)C(=O)Nc1cc(C(=O)OC)cc(C(=O)OC)c1,-0.461
6,CCOC(=O)c1c(N)c(C#N)c2n1CCCC2,-0.108
7,CCC(O)(CC)C(=O)NN(C(=O)CCl)c1ccccc1,0.856
8,COC(=O)c1cc(C#N)c(SCc2ccccc2)nc1C,-0.205
9,CC1(C)N=C(SCC(=O)Nc2ccc(Cl)cc2)C(c2ccccc2)=N1,-0.292
10,COc1cc(C)c(C(C)C)cc1S(=O)(=O)N1CCN(C)CC1,0.102
11,O=C(OCC(=O)N1CCc2ccccc21)c1c2c(nc3ccccc13)CCCC2,-0.688
12,O=C(N/N=C/c1cccs1)C1COc2ccccc2O1 (stereo not given),0.238
13,NC(=O)C1(N2CCCCC2)CCN(C(=O)CSc2nc(C(F)(F)F)cc(=O)[nH]2)CC1,-0.315
14,CCC(C)(C(=O)NC1CCCC1)N(C(=O)c1ccccn1)c1ccccc1 (stereo not given),-0.308
15,O=c1c(Cl)c(N2CCCCC2)cnn1-c1nc2ccccc2[nH]1,-0.0787
16,COc1ccc(/C=C/c2nc(N)nc(-c3ccccc3O)n2)cc1OC,-0.495
17,CN1CCN(c2ncnc3c2cnn3-c2ccc(Cl)cc2)CC1,0.276
18,CCN1CCC(C(N)=O)CC1,-0.243
19,CC1=NN(C(=O)Cc2ccc([N+](=O)[O-])cc2)C(O)(c2ccccc2)C1 (stereo not given),-0.363
20,CCCc1nc2sc3ccccc3c(=O)c2c(=O)n1CCOC,-0.0979
21,O=c1c2ccccc2nc2n1CC/C2=C\c1ccccc1[N+](=O)[O-],0.108
22,O=C(O)c1c(F)c(F)c(F)c(F)c1-c1ccc(Cl)cc1,0.0898

row,SMILES,z-score
1,COc1ccccc1NC(=S)NC(=O)CC(C)C,0.0124
2,CCNc1ccc(C(=O)N/N=C/c2c(C)nn(-c3ccccc3)c2N2CCCC2)cc1[N+](=O)[O-],-1.03
3,CCCNc1c(N)n(-c2ccccc2)c(=O)[nH]c1=O,-0.0619
4,CCOC(=O)C1CCCN(C(=S)Nc2cccc(Cl)c2C)C1 (stereo not given),-0.429
5,O=C(NCCCc1ccccc1)C1CC(=O)N(c2ccc3c(c2)OCCO3)C1 (stereo not given),0.125
6,CS(=O)(=O)Nc1ccc(C(=O)NCC2CCCO2)cc1 (stereo not given),-0.102
7,CC(=O)c1cccc(NC(=O)C(Sc2ncnc3ccccc23)c2ccccc2)c1 (stereo not given),-0.266
8,N#Cc1sc2nc(-c3cccs3)cc(-c3ccccc3)c2c1N,-0.201
9,Cc1ccccc1OCC(O)Cn1c(=N)n(CCN2CCOCC2)c2ccccc21 (stereo not given),1.12
10,CCN1CCN(C(=S)Nc2ccc(Cl)cc2Cl)CC1,-0.514
11,CCOC(=O)c1sc(Nc2ccc(C)cc2C)nc1C,0.388
12,Cc1ccc(-n2c(SCC(=O)N3CCOCC3)nnc2-c2ccncc2)cc1,0.261
13,CCn1c(CNC(=O)c2cccs2)nnc1SCC(=O)Nc1ccc(Cl)cc1,-0.544
14,O=C(O)CSc1nnc(-c2ccc3c(c2)OCO3)o1,0.0398
15,CCCn1c(C)cc(C(=O)CSc2nc3ccccc3c(=O)n2Cc2ccco2)c1C,0.00814
16,Cc1cccc(Cn2c(=O)n(Cc3ccco3)c(=O)c3ccccc32)c1,-0.97
17,Cc1cc(F)c(F)c(C(=O)NC2CC2)c1Cl,0.0775
18,CCOc1ccc(CCN2C(=O)CCC2(C)C(=O)NC(C)CC)cc1OCC (stereo not given),-0.735
19,O=S(=O)(Nc1cccc2cn[nH]c12)c1ccc(F)cc1,-0.00841
20,COC(=O)c1ccc(C(=O)OC)c(NC(=O)N2c3ccccc3Sc3ccccc32)c1,-1.57
21,O=C(CC1C(=O)N(c2ccccc2)C(=S)N1c1ccccc1)c1ccccc1 (stereo not given),0.466
22,COC(=O)C(C(C)=O)C1=C/C(=N\S(=O)(=O)c2ccc(C)cc2)c2ccccc2C1=O (stereo not given),-0.182

row,SMILES,z-score
1,COc1ccc(OC)c(NC(=O)COC(=O)/C=C/c2c(C)nn(C3CCS(=O)(=O)C3)c2Cl)c1 (stereo not given),-0.29
2,CCn1c(SCC(=O)Nc2ccccc2)nnc1C1CCCCC1,0.234
3,CCOc1ccccc1N(C(=O)Cn1nnnc1-c1ccc(C)o1)C(CC)C(=O)NC(C)(C)C (stereo not given),-0.0165
4,Cc1cc(/C=N/O)c(C)n1-c1ccccc1,-0.285
5,COc1ccc(-c2c(C)n([O-])c3c([n+]2=O)CCCC3)cc1,0.18
6,O=C(CCn1c(=O)oc2ccccc21)N1CCN(C(c2ccccc2)c2ccccc2)CC1,0.228
7,Cc1cc(N/N=C/c2ccc(O)cc2O)nc(-c2ccccc2O)n1,-0.489
8,COc1ccc(N2CCN(C(=O)CSc3nnc4c(C)cc5cc(C)ccc5n34)CC2)cc1,1.03
9,CC(=O)Nc1ccc(N2CCOCC2)c(C(=O)Nc2cccc(C)c2)c1,-0.639
10,Cc1ccc(CNC(=O)CSc2ccc(-c3ccco3)nn2)cc1,0.58
11,CCCC(=O)NC(NC(=S)Nc1c(C)n(C)n(-c2ccccc2)c1=O)C(Cl)(Cl)Cl (stereo not given),-0.165
12,CCCc1ccc(-c2ccc(F)c(N)c2)nc1,-0.197
13,O=C1OC(Cc2ccccn2)C(O)=C1C1=NCCCN1 (stereo not given),-0.297
14,COc1ccccc1S(=O)(=O)Cc1ccc(C(=O)NCc2cccs2)o1,0.352
15,COC(=O)c1cccc(NC(=S)Nc2cccc(Cl)c2Cl)c1,2.5
16,Cc1cccc(C)c1Nc1nnc(SCC(=O)NC2CCS(=O)(=O)C2)s1 (stereo not given),-0.0985
17,CCn1cc([N+](=O)[O-])c(C(=O)Nc2cc(C)on2)n1,0.0332
18,COc1ccc(NS(=O)(=O)c2cccc(N/C(=N\S(=O)(=O)c3ccccc3)c3ccc(F)cc3)c2)cc1,-1.31
19,COc1ccc2c(c1)C1C=CCC1C(c1cc3c(cc1Br)OCO3)N2 (stereo not given),-0.214
20,Cc1cc(N2CC(=O)N(CCc3ccccc3)C(=O)C2)n2ncnc2n1,0.186
21,CN(C)c1nc(Nc2ccc(Cl)cc2)nc(OCC#N)n1,-0.137
22,COC(=O)Nc1ccc2ncn(C)c(=O)c2c1,0.00144

row,SMILES,z-score
1,CCOC(=O)CC(NC(=O)C1c2ccccc2Oc2ccccc21)c1ccc(C)cc1 (stereo not given),-0.0467
2,CS(=O)(=O)N1CCc2cc(-c3csc(NC(=O)Cc4cccs4)n3)ccc21,-0.429
3,CCOC(=O)COc1c(-c2ccc(OC)cc2)oc2ccccc2c1=O,-0.598
4,COc1ccc(-c2cc3nc(C)c(CCC(=O)NCc4ccco4)c(C)n3n2)c(OC)c1,-1.03
5,Cc1nc(N)nc(Nc2ccc(Cl)cc2)c1Br,0.259
6,COC(=O)c1nn(C23CC4CC(CC(C4)C2)C3)c2c1C(=O)N(c1ccc(Br)cc1)C2=O,-0.268
7,COc1ccc2ccc3c(c2c1)N=CC1(O3)N(C)c2ccccc2C1(C)C (stereo not given),0.592
8,COC(=O)N1CC(=O)N(OC)C1c1ccc(Cl)cc1Cl (stereo not given),0.0679
9,CCCNC(=O)COc1ncnc2sc(C)c(C)c12,0.229
10,Cc1ccc(C)c(NC(=O)CCN2CC(C)OC(C)C2)c1 (stereo not given),0.575
11,CCOC(=O)N1CCN(Cc2nc3c(c(=O)n(C)c(=O)n3C)n2Cc2ccc(F)cc2)CC1,-0.117
12,CCOC(=O)N1CCC(NC(=O)c2cccc3c2C(=O)N(c2ccc(OC)cc2)C3)CC1,-1.84
13,O=C(c1ccc(S(=O)(=O)N2CCOCC2)cc1)N1CCCc2ccccc21,0.144
14,Cn1c(N/N=C/c2ccccc2)nc2sc3c(c2c1=O)CCC3,1.3
15,CN(C)c1ccc(/C=C/c2nnnn2-c2ccccc2)cc1,-0.556
16,O=C(Nc1c(F)c(F)c(F)c(F)c1F)NC1CCCCC1,0.0762
17,CCOc1c(CNCCN2CCOCC2)cccc1OC,-0.0524
18,CN1CCN(c2nc(-c3ccccn3)nc3ccccc23)CC1,0.153
19,CCCc1ccc(C2C3=C(CC(C)(C)CC3=O)NC3=C2C(=O)c2ccccc23)cc1 (stereo not given),0.441
20,C=CCn1c(-c2ccc(OC)c(OC)c2)cs/c1=N\c1ccccn1,0.586
21,COc1cccc(CC(NC(C)=O)C(=O)NC2CCN(c3nnnn3-c3ccccc3)CC2)c1 (stereo not given),-0.912
22,COc1cc(NC(=O)c2ccc(COc3ccccc3Br)o2)cc(OC)c1OC,-0.932
